Source: the supplement of paper PMC9151546
Repeats are few or missing, and single values can be far off.

Tests used:
CHO-K1 [1] = experiment: relative survival (nuclei to bead ratio vs DMSO control) (% of vehicle control); higher = more surviving cells
Method: (§1)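 Flow-cytometric in vitro micronucleus assay (Litron MicroFlow) in CHO-K1 cells in 96-well plates, 19 concentrations (4.5-200 µM, n=1 per concentration). Without S9, cells were exposed for 24 h and sampled at 48 h. With Aroclor 1254-induced rat liver S9, cells were exposed for 3-4 h and sampled at 27-28 h. Read-outs are %MN and %hypodiploid nuclei relative to nucleated events, and relative survival as the nuclei-to-bead ratio versus the 1% DMSO vehicle control (x100).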

CHO-K1 [2] = experiment: hypodiploid nuclei frequency (% of nucleated events); higher = more hypodiploid events (aneugenic)
Method: as §1

CHO-K1 [3] = experiment: micronucleus frequency (% of nucleated events); higher = more micronuclei (genotoxic)
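Wherever hypodiploid nuclei frequency (% of nucleated events) is given: hypodiploid nuclei gated on a flow cytometer with 488 nm excitation after SYTOX Green staining, cultures at 37 °C, positive controls vinblastine without S9 and cyclophosphamide with S9.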
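Wherever micronucleus frequency (% of nucleated events) is given: cells lysed with nuclei stained by SYTOX Green, then micronucleus-gated events counted against nucleated events by flow cytometry with 488 nm excitation.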
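Wherever relative survival (nuclei to bead ratio vs DMSO control) is given: Lysed-cell nuclei stained with SYTOX Green and counted against counting beads by flow cytometry at 488 nm excitation, with vinblastine (no S9) and cyclophosphamide (plus S9) as positive controls.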

Nc1ccc(Cl)cc1N [4-Chloro-1,2-diaminobenzene]
Conditions | hypodiploid nuclei frequency, CHO-K1 [2] [%] | micronucleus frequency, CHO-K1 [3] [%] | relative survival, CHO-K1 [1]
concentration: 4.5 (µM), S9 metabolic activation: with S9, exposure time: 3-4 hours | 0.46 | 1.12 | 85.5
concentration: 4.5 (µM), S9 metabolic activation: without S9, exposure time: 24 hours | 3.24 | 1.06 | 106
concentration: 5.63 (µM), S9 metabolic activation: with S9, exposure time: 3-4 hours | 0.3 | 1.06 | 92.5
concentration: 5.63 (µM), S9 metabolic activation: without S9, exposure time: 24 hours | 1.58 | 1.2 | 90.1
concentration: 7.04 (µM), S9 metabolic activation: with S9, exposure time: 3-4 hours | 0.34 | 1.54 | 91.9
concentration: 7.04 (µM), S9 metabolic activation: without S9, exposure time: 24 hours | 1.32 | 1.36 | 109
concentration: 8.8 (µM), S9 metabolic activation: with S9, exposure time: 3-4 hours | 0.52 | 1.24 | 87.2
concentration: 8.8 (µM), S9 metabolic activation: without S9, exposure time: 24 hours | 0.84 | 1.3 | 102
concentration: 11 (µM), S9 metabolic activation: with S9, exposure time: 3-4 hours | 0.32 | 1.08 | 90.4
concentration: 11 (µM), S9 metabolic activation: without S9, exposure time: 24 hours | 1.14 | 1.3 | 105
concentration: 13.7 (µM), S9 metabolic activation: with S9, exposure time: 3-4 hours | 0.46 | 0.86 | 91.1
concentration: 13.7 (µM), S9 metabolic activation: without S9, exposure time: 24 hours | 1.02 | 1.74 | 98.4
concentration: 17.2 (µM), S9 metabolic activation: with S9, exposure time: 3-4 hours | 0.66 | 0.9 | 95.8
concentration: 17.2 (µM), S9 metabolic activation: without S9, exposure time: 24 hours | 1.18 | 1.54 | 102
concentration: 21.5 (µM), S9 metabolic activation: with S9, exposure time: 3-4 hours | 0.4 | 0.8 | 108
concentration: 21.5 (µM), S9 metabolic activation: without S9, exposure time: 24 hours | 1.02 | 1.82 | 104
concentration: 26.8 (µM), S9 metabolic activation: with S9, exposure time: 3-4 hours | 0.2 | 1.06 | 95.8
concentration: 26.8 (µM), S9 metabolic activation: without S9, exposure time: 24 hours | 1.88 | 1.48 | 123
concentration: 33.6 (µM), S9 metabolic activation: with S9, exposure time: 3-4 hours | 0.3 | 1.08 | 97
concentration: 33.6 (µM), S9 metabolic activation: without S9, exposure time: 24 hours | 1.96 | 1.8 | 117
concentration: 41.9 (µM), S9 metabolic activation: with S9, exposure time: 3-4 hours | 0.24 | 1.46 | 91.4
concentration: 41.9 (µM), S9 metabolic activation: without S9, exposure time: 24 hours | 5.8 | 1.7 | 115
concentration: 52.4 (µM), S9 metabolic activation: with S9, exposure time: 3-4 hours | 0.28 | 0.96 | 98.5
concentration: 52.4 (µM), S9 metabolic activation: without S9, exposure time: 24 hours | 1.38 | 1.24 | 120
concentration: 65.5 (µM), S9 metabolic activation: with S9, exposure time: 3-4 hours | 0.36 | 1.4 | 96.7
concentration: 65.5 (µM), S9 metabolic activation: without S9, exposure time: 24 hours | 1.62 | 1.78 | 109
concentration: 81.9 (µM), S9 metabolic activation: with S9, exposure time: 3-4 hours | 0.54 | 1.58 | 113
concentration: 81.9 (µM), S9 metabolic activation: without S9, exposure time: 24 hours | 1.42 | 1.5 | 123
concentration: 102 (µM), S9 metabolic activation: with S9, exposure time: 3-4 hours | 0.4 | 1.1 | 95.5
concentration: 102 (µM), S9 metabolic activation: without S9, exposure time: 24 hours | 1.7 | 1.72 | 112
concentration: 128 (µM), S9 metabolic activation: with S9, exposure time: 3-4 hours | 0.86 | 1.58 | 98.2
concentration: 128 (µM), S9 metabolic activation: without S9, exposure time: 24 hours | 1.94 | 1.9 | 114
concentration: 160 (µM), S9 metabolic activation: with S9, exposure time: 3-4 hours | 1.5 | 1.4 | 95.8
concentration: 160 (µM), S9 metabolic activation: without S9, exposure time: 24 hours | 2.1 | 2.16 | 122
concentration: 200 (µM), S9 metabolic activation: with S9, exposure time: 3-4 hours | 1.52 | 1.6 | 89.1
concentration: 200 (µM), S9 metabolic activation: without S9, exposure time: 24 hours | 2.84 | 2.38 | 100

Cc1ccc(Cl)cc1 [4-Chlorotoluene]
Conditions | hypodiploid nuclei frequency, CHO-K1 [2] [%] | micronucleus frequency, CHO-K1 [3] [%] | relative survival, CHO-K1 [1]
concentration: 4.5 (µM), S9 metabolic activation: with S9, exposure time: 3-4 hours | 0.34 | 0.94 | 98.6
concentration: 4.5 (µM), S9 metabolic activation: without S9, exposure time: 24 hours | 0.38 | 1.54 | 89.5
concentration: 5.63 (µM), S9 metabolic activation: with S9, exposure time: 3-4 hours | 0.14 | 1.12 | 86.3
concentration: 5.63 (µM), S9 metabolic activation: without S9, exposure time: 24 hours | 0.52 | 1.02 | 88.6
concentration: 7.04 (µM), S9 metabolic activation: with S9, exposure time: 3-4 hours | 0.32 | 1.18 | 78.5
concentration: 7.04 (µM), S9 metabolic activation: without S9, exposure time: 24 hours | 0.52 | 2.04 | 85.6
concentration: 8.8 (µM), S9 metabolic activation: with S9, exposure time: 3-4 hours | 0.38 | 1.4 | 109
concentration: 8.8 (µM), S9 metabolic activation: without S9, exposure time: 24 hours | 0.56 | 1.88 | 88.9
concentration: 11 (µM), S9 metabolic activation: with S9, exposure time: 3-4 hours | 0.2 | 1.08 | 101
concentration: 11 (µM), S9 metabolic activation: without S9, exposure time: 24 hours | 0.68 | 1.52 | 94.9
concentration: 13.7 (µM), S9 metabolic activation: with S9, exposure time: 3-4 hours | 0.18 | 1.08 | 95.1
concentration: 13.7 (µM), S9 metabolic activation: without S9, exposure time: 24 hours | 0.48 | 1.9 | 84.2
concentration: 17.2 (µM), S9 metabolic activation: with S9, exposure time: 3-4 hours | 0.26 | 1.42 | 77.7
concentration: 17.2 (µM), S9 metabolic activation: without S9, exposure time: 24 hours | 0.66 | 1.58 | 91.1
concentration: 21.5 (µM), S9 metabolic activation: with S9, exposure time: 3-4 hours | 0.28 | 1.18 | 112
concentration: 21.5 (µM), S9 metabolic activation: without S9, exposure time: 24 hours | 0.44 | 1.46 | 85
concentration: 26.8 (µM), S9 metabolic activation: with S9, exposure time: 3-4 hours | 0.14 | 0.64 | 117
concentration: 26.8 (µM), S9 metabolic activation: without S9, exposure time: 24 hours | 0.6 | 1.42 | 94.9
concentration: 33.6 (µM), S9 metabolic activation: with S9, exposure time: 3-4 hours | 0.26 | 1.06 | 103
concentration: 33.6 (µM), S9 metabolic activation: without S9, exposure time: 24 hours | 0.52 | 1.78 | 103
concentration: 41.9 (µM), S9 metabolic activation: with S9, exposure time: 3-4 hours | 0.2 | 1.24 | 106
concentration: 41.9 (µM), S9 metabolic activation: without S9, exposure time: 24 hours | 0.72 | 1.86 | 102
concentration: 52.4 (µM), S9 metabolic activation: with S9, exposure time: 3-4 hours | 0.32 | 0.86 | 116
concentration: 52.4 (µM), S9 metabolic activation: without S9, exposure time: 24 hours | 0.62 | 1.66 | 103
concentration: 65.5 (µM), S9 metabolic activation: with S9, exposure time: 3-4 hours | 0.12 | 0.96 | 98
concentration: 65.5 (µM), S9 metabolic activation: without S9, exposure time: 24 hours | 0.8 | 1.74 | 99.7
concentration: 81.9 (µM), S9 metabolic activation: with S9, exposure time: 3-4 hours | 0.14 | 1.32 | 138
concentration: 81.9 (µM), S9 metabolic activation: without S9, exposure time: 24 hours | 0.88 | 1.48 | 102
concentration: 102 (µM), S9 metabolic activation: with S9, exposure time: 3-4 hours | 0.34 | 1.46 | 123
concentration: 102 (µM), S9 metabolic activation: without S9, exposure time: 24 hours | 0.68 | 1.6 | 91.4
concentration: 128 (µM), S9 metabolic activation: with S9, exposure time: 3-4 hours | 0.24 | 1.46 | 93.4
concentration: 128 (µM), S9 metabolic activation: without S9, exposure time: 24 hours | 1.02 | 2.16 | 98.2
concentration: 160 (µM), S9 metabolic activation: with S9, exposure time: 3-4 hours | 0.34 | 1.32 | 127
concentration: 160 (µM), S9 metabolic activation: without S9, exposure time: 24 hours | 0.98 | 2.2 | 89.8
concentration: 200 (µM), S9 metabolic activation: with S9, exposure time: 3-4 hours | 0.4 | 1.66 | 111
concentration: 200 (µM), S9 metabolic activation: without S9, exposure time: 24 hours | 1.3 | 2.84 | 95.2
